# Source: the supplement of paper PMC3334620
# Whole data set: some 33,000 sequences, median “E-score (-0.5 to 0.5)” near -0.054, cut for the highest 2% near 0.39. The list shows a part of the results.
# Molecular target: Ylr278c (UniProt Q05854)
# Assay: PBM E-score (8-mer binding enrichment) (E-score (-0.5 to 0.5)); higher = stronger / more preferred TF binding; most listed sequences are background and not binding sites
# Details: protein concentration: 200 nM; construct: GST-DNA-binding domain
# Summary of the method: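 PURExpress in vitro transcription/translation supplied GST-tagged yeast transcription factors, either full-length or DNA-binding domain. Applied at about 100-200 nM to universal all-10-mer Agilent arrays double-stranded by primer extension, the bound protein was detected with fluorescent anti-GST. E-scores, modified Wilcoxon-Mann-Whitney statistics, were given by the Universal PBM Analysis Suite to ungapped eight-base words pooled with their reverse complements after masliner normalisation.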
row,Sequence,PBM E-score
1,ACTAAGTG,-0.124
2,GAGGAGCA,-0.0254
3,ATCGTTTC,-0.0485
4,GCAAAGCC,-0.0386
5,AAAACTAG,-0.062
6,CCAGAACA,-0.0559
7,CATTATCC,0.202
8,CACGGTAC,-0.0692
9,GCGTTCTA,0.189
10,AAAGATGG,-0.0899
11,GAAGTATA,0.11
12,GAGCATGA,-0.158
13,CCTGCACC,-0.0429
14,GACCATGA,0.0081
15,CTAGTCGA,-0.237
16,ACCAGACA,-0.164
17,TGAATCCA,-0.128
18,CTGAACCA,-0.255
19,AAAAAGTC,0.192
20,AACGACAT,-0.0462
21,CAACGAGC,-0.234
22,AATCGTGC,0.107
23,GTCCAAAA,0.136
24,CTTTCAGA,-0.0994
25,AAGGCTGC,-0.149

row,Sequence,PBM E-score
1,TGCAGACA,-0.196
2,ACTTACCT,-0.148
3,CGCCAATA,-0.045
4,CGACGGCG,0.292
5,AATGCCTA,0.0677
6,GAAGTAAA,0.115
7,CTAGGCGC,-0.0895
8,AGTGAGAC,-0.0928
9,TCATGGGA,-0.246
10,CTATACCA,-0.225
11,CGAGTCAG,-0.151
12,AGTAGTAT,-0.121
13,GGACGTAC,0.0307
14,AACTTGAT,-0.118
15,CACTCCAG,-0.114
16,ACAGCAGC,-0.191
17,CAGCTGAG,-0.175
18,ACTGACTC,-0.0355
19,GATCCATA,0.0155
20,ACCCGGTA,0.161
21,TGCTTGAA,-0.118
22,GAACGCCA,-0.00304
23,GAGGTTCC,0.0696
24,CCTCTTGC,-0.1
25,CTGAGGTC,-0.297

row,Sequence,PBM E-score
1,CAAGTGAC,-0.0978
2,CTGGGTTA,-0.14
3,CATAGAGC,-0.211
4,AATGCACC,0.121
5,CTGGAAGC,-0.226
6,AAAGCTAT,-0.0422
7,AATTAACC,0.192
8,ATAAGAAT,-0.0758
9,ATACGACA,-0.229
10,ACATTACA,-0.104
11,ACCAGTAA,0.00819
12,AAAGGCCA,-0.109
13,AGCAACGC,0.0442
14,GATGACAA,0.0504
15,AGGCGCTC,0.0698
16,GGCCTCAC,-0.0329
17,AAACTGTG,-0.134
18,ATCTGCTG,-0.22
19,ATATGCGA,-0.00735
20,GCGAACAC,-0.00082
21,CCTTGCAG,-0.0823
22,TAACTCAA,-0.155
23,CTCCCCCA,-0.135
24,CCAGGGGC,-0.298
25,CTCACCTC,-0.0994

row,Sequence,PBM E-score
1,ACGGAGGA,0.383
2,CCACATTA,-0.0697
3,CGCGAGTA,0.106
4,AACGACGG,0.176
5,CCTCGGGC,0.136
6,CATTGTGA,-0.106
7,CGAAGCTA,-0.16
8,GCAACAAA,-0.0318
9,CCGACAGA,0.306
10,CGCCTCTA,-0.119
11,CCCCACAA,-0.0102
12,ACATTACG,-0.102
13,ATGCTTGC,-0.155
14,CTGTACAG,-0.18
15,AGGATCCT,-0.232
16,CTTTGGGA,-0.157
17,CGGCGCCC,0.246
18,GAGCTCAA,0.108
19,ATCGGGGA,0.33
20,AGCGGATA,0.287
21,CGGCTCTC,0.119
22,CTAACAAG,-0.324
23,ACGTTCCT,-0.0566
24,GGAATACA,0.286
25,ACCAAGAG,-0.29

row,Sequence,PBM E-score
1,ACGACCAC,-0.211
2,AGAGGCGC,-0.133
3,GGCTAGAA,0.0303
4,ACGCCCCT,-0.288
5,AGAGTGAA,-0.00028
6,CATTTCTC,0.133
7,TGAGAAAA,-0.136
8,GCACTGCC,0.0854
9,AACCCCCA,-0.224
10,AAACCGAT,0.147
11,CAGCGGCC,0.156
12,ATGTGGTG,-0.0662
13,CGTTATAG,-0.198
14,GCGGCTCA,0.092
15,ACAACAGA,-0.167
16,CGTACTTC,0.134
17,ATAGGCAG,-0.209
18,ACATATCG,-0.155
19,TACCCGAA,0.0727
20,CGCACCTA,-0.0854
21,GAGGTTCA,0.0375
22,ATCACCCC,-0.0133
23,AACTTATC,0.0759
24,GCGCGTCC,0.0412
25,AGCCCAGA,-0.0881

row,Sequence,PBM E-score
1,CCTAGCCG,0.167
2,CTAAAAAC,-0.18
3,AAACTATG,-0.155
4,ACGTTAAA,-0.0842
5,CCCTGCGC,-0.00024
6,TCGTGTCA,-0.163
7,ACTGATTA,-0.165
8,CGTTAAAG,-0.0539
9,CGTGCTTC,-0.0238
10,CCACGTAG,-0.214
11,AAGGGGCG,0.104
12,AAGACCAA,-0.1
13,GCGCTTCA,0.0702
14,GAGACTGC,-0.103
15,ATTCGCCG,0.358
16,CGCGTAAG,0.124
17,CGACACCA,0.00727
18,CAGCGCCA,-0.177
19,CAATTATC,0.176
20,GTAGCGAA,0.023
21,AGGGTTTA,-0.272
22,TCTTTAAA,-0.1
23,ATTGAGGG,-0.057
24,CCGCTCCC,0.191
25,AGACTCAC,-0.248

row,Sequence,PBM E-score
1,ATAAGTAT,-0.0601
2,CTTCGTTA,-0.196
3,CAGGTTAG,-0.0908
4,ATATCTAG,-0.158
5,CGGCCGCC,0.282
6,AATTGTGC,-0.111
7,CCTATCGA,-0.293
8,CTCCCACC,-0.125
9,CGTCAGGC,-0.0762
10,GAGGCCGA,0.217
11,GCGTACGA,0.0892
12,TAATAGGA,0.0116
13,ACTTTATG,-0.132
14,CGTCTAGA,-0.217
15,GATGCCAA,-0.218
16,CGTGCTCA,-0.0992
17,CCACGACG,0.0958
18,CGCACTCA,0.0572
19,CGATAGAG,-0.101
20,ATTCCAAA,-0.142
21,TGACCACA,-0.213
22,GGCCGGCA,0.394
